Data on 12 molecules can be found in paper PMC9596831.

Sequences of proteins named here, by UniProt entry; tags and fusion partners are left off.
UniProt Q13547: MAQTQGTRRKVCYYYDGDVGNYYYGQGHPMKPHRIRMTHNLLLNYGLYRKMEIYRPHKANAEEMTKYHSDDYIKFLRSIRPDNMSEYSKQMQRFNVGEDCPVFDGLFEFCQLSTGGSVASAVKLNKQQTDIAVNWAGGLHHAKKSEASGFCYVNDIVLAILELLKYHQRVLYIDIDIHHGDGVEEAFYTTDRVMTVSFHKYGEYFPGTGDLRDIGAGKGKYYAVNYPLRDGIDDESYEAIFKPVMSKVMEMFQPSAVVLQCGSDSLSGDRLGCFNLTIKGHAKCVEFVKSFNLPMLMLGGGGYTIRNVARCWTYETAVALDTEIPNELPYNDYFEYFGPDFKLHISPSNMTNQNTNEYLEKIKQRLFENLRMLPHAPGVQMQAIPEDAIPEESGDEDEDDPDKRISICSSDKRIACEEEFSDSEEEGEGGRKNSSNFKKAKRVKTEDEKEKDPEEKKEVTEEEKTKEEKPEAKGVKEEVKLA
UniProt P09429: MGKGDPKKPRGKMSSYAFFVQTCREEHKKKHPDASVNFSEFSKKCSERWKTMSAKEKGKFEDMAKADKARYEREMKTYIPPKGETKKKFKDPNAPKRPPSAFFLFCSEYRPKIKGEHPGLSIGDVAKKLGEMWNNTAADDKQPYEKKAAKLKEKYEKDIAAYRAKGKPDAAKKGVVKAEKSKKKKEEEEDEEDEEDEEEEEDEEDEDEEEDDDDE
UniProt O15379: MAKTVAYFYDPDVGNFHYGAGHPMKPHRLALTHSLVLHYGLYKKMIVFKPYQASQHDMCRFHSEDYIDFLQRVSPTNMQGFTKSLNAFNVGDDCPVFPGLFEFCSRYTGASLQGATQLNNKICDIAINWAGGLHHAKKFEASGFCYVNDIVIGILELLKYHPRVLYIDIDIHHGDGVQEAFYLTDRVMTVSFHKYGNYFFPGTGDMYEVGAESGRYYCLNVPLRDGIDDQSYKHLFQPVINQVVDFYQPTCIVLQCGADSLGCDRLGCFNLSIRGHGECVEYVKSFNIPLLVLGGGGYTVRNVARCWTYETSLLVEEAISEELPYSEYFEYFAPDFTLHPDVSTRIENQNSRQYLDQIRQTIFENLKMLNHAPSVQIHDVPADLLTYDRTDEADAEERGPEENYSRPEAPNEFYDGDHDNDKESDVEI
UniProt Q9UQL6: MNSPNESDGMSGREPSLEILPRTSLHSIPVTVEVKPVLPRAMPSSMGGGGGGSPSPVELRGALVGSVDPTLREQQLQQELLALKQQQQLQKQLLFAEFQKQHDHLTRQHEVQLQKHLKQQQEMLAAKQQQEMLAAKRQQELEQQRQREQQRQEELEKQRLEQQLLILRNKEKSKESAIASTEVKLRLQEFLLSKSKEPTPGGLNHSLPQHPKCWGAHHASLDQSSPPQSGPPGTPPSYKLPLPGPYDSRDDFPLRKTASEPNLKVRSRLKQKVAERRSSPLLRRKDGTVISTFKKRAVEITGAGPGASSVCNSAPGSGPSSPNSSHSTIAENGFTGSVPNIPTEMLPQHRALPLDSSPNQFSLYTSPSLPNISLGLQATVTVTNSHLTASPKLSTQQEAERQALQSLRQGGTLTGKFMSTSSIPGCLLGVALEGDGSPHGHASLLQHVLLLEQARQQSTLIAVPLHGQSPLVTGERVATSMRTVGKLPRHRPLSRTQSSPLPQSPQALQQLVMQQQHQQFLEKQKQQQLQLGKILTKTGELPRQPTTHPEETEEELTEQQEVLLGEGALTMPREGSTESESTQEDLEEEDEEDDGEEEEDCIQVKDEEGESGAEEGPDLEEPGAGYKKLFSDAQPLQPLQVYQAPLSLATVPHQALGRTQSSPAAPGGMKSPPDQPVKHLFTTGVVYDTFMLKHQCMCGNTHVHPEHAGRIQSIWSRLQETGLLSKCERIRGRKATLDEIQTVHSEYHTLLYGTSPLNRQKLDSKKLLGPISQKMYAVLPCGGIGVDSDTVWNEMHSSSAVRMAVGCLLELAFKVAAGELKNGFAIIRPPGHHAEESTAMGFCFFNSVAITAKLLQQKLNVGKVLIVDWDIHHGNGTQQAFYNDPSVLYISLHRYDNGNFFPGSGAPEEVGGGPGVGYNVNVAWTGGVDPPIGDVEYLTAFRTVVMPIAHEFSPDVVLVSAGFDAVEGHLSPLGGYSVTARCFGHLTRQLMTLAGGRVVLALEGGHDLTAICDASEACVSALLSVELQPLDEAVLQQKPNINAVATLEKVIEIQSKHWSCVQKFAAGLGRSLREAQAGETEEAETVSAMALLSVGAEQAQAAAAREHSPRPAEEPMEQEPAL
UniProt Q9UBN7: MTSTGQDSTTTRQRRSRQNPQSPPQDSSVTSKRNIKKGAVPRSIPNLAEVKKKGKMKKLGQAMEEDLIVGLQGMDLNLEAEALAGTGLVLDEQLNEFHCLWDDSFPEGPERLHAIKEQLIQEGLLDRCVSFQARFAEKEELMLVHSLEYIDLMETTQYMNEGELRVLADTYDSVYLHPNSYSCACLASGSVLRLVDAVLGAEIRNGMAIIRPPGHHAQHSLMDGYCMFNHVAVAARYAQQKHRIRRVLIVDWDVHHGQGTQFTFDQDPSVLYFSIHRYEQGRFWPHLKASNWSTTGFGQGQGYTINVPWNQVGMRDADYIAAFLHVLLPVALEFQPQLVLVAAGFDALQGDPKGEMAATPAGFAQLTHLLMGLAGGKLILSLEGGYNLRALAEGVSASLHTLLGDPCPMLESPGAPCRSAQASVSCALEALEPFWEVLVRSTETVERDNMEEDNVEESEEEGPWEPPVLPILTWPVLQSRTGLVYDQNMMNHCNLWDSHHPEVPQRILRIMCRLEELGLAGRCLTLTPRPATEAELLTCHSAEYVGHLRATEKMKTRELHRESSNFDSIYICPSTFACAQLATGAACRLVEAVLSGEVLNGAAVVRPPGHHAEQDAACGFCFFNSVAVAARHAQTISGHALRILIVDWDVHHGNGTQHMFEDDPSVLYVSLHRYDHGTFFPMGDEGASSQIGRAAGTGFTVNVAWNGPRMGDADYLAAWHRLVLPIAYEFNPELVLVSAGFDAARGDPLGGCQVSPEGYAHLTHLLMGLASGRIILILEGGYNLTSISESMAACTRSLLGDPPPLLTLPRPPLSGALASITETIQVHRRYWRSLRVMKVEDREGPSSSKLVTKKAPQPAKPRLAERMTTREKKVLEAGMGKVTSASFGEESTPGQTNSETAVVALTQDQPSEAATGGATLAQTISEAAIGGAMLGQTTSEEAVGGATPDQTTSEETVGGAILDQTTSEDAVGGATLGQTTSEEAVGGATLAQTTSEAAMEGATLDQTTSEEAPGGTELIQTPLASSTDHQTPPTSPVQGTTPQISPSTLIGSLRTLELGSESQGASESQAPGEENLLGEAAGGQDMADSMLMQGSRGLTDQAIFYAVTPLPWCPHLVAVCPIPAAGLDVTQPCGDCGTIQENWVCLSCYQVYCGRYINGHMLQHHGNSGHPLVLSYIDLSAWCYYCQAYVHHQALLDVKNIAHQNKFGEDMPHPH
UniProt Q9UKV0: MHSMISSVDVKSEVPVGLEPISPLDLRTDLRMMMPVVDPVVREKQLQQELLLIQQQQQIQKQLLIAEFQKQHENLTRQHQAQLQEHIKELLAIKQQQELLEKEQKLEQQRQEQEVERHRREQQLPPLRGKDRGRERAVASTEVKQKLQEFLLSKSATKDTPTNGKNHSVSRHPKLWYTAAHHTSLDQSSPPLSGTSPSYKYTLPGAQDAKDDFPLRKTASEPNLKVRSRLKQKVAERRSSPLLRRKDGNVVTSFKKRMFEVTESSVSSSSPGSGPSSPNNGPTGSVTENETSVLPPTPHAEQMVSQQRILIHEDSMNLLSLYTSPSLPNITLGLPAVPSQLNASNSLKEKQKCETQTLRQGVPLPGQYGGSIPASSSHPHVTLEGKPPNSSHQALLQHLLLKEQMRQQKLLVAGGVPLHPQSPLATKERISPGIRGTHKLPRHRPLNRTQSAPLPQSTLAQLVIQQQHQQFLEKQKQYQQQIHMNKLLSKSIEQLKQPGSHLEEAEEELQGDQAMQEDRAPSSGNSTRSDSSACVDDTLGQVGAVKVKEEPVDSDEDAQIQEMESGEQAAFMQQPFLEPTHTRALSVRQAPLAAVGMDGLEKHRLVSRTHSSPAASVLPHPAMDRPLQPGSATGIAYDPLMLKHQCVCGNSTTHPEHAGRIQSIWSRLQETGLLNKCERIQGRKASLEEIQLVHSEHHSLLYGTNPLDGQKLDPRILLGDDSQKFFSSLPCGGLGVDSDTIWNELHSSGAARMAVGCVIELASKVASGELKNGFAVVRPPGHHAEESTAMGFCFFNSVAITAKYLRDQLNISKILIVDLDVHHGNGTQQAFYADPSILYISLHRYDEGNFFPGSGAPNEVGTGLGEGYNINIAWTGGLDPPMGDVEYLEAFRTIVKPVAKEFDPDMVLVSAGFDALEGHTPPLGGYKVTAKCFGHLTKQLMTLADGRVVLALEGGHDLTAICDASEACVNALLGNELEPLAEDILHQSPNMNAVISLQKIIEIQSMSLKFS

The target of experiment [1] is histone deacetylase 1 (HDAC1), endogenous in U2OS cells (human (endogenous in U2OS)) (UniProt Q13547). The experiment is described as follows: co-IP; two-step IP in U2OS cells expressing FLAG-HMGB1: first IP with anti-FLAG antibodies, elution with 3xFlag peptides, second IP with HDAC1 antibodies; lysis buffer 20 mM Hepes pH 7.8, 400 mM KCl, 0.5% NP-40.
For experiment [2], the target named is FLAG-tagged HMGB1 (high-mobility group box 1) expressed in U2OS cells (UniProt P09429). The experiment is described as follows: co-IP; anti-FLAG (M2) beads on lysates of U2OS cells expressing pCDH-FLAG-HMGB1 (sh-ctrl); western blot for HDAC1-10; RIP lysis buffer, RNase-free, 4 h at 4 °C. (In western blotting, separated proteins are transferred to a membrane and probed.)

Experiment [3] has as its target Recombinant FLAG-tagged HMGB1 protein purified from 293T cells (UniProt P09429). The experiment is described as follows: pull-down; in vitro binding assay: recombinant FLAG-HMGB1 and HIS-HDAC1 with in vitro transcribed sense or antisense VNGD RNA; FLAG IP, western blot against HIS and FLAG; both purified.
The target in experiment [4] is histone deacetylase 1 (HDAC1), endogenous in U2OS cells (human (endogenous in U2OS)) (UniProt Q13547). The experiment is described as follows: co-IP; IgG or anti-HDAC1 antibodies on lysates of U2OS cells expressing sh-ctrl or sh-VNGD; endogenous HMGB1 detected by western blot; RNase-free.
The target of experiment [5] is FLAG-tagged HMGB1 (high-mobility group box 1) expressed in U2OS cells (UniProt P09429). The experiment in a line: co-IP; two-step IP in U2OS cells expressing FLAG-HMGB1: first IP with anti-FLAG antibodies, elution with 3xFlag peptides, second IP with HDAC1 antibodies; lysis buffer 20 mM Hepes pH 7.8, 400 mM KCl, 0.5% NP-40.
The target in experiment [6] is high-mobility group box 1 (HMGB1), endogenous in U2OS cells (human (endogenous in U2OS)) (UniProt P09429). The experiment is described as follows: co-IP; IgG or anti-HMGB1 antibodies on lysates of control (pCDH-ctrl) or VNGD-overexpressing U2OS cells, with or without glucose for 24 h; endogenous HDAC1 detected by western blot; RNase-free.
The target of experiment [7] is FLAG-tagged HMGB1 (high-mobility group box 1) expressed in U2OS cells (UniProt P09429). The experiment is described as follows: co-IP; as a1, but U2OS cells with VNGD (lncRNA Vanguard) silenced by sh-VNGD.
The target of experiment [8] is pBIND-HMGB1 (mammalian two-hybrid fusion) (UniProt P09429). The experiment is described as follows: two-hybrid; mammalian two-hybrid: pBIND-HMGB1 and pACT-HDAC1 with pG5luc in U2OS cells after 48 h transduction with sh-ctrl or sh-VNGD; luciferase normalised to Renilla.

These are yes or no findings as the source states them, for the method shown. For part of these data: In cells and extracts the contact can be indirect. Some binding calls cover weakened binding; strength is not graded here.

Take “FLAG-tagged HMGB1 (high-mobility group box 1) expressed in U2OS cells (from UniProt P09429 1-215)”: the binding result in experiment [1] is on record as “binds”.

For the molecule “HDAC3, endogenous in U2OS cells (from UniProt O15379 1-428) (enzyme)”, the binding entry in experiment [2] is “no binding”.

With “HDAC5, endogenous in U2OS cells (from UniProt Q9UQL6 1-1122) (enzyme)”, the binding entry in experiment [2] is given as “no binding”.

In the case of “HDAC6, endogenous in U2OS cells (from UniProt Q9UBN7 1-1215) (enzyme)”, the binding entry in experiment [2] was “no binding”.

For “HDAC9, endogenous in U2OS cells (from UniProt Q9UKV0 1-1011) (enzyme)”, the binding entry in experiment [2] is “no binding”.

Regarding “Recombinant His-tagged HDAC1 purified from E. coli (from UniProt Q13547 1-482) (enzyme)”, in experiment [3], the binding entry is listed as “binds”.

Take “high-mobility group box 1 (HMGB1), endogenous in U2OS cells (from UniProt P09429 1-215)”: the binding result in experiment [4] is reported as “binds”.

As to “histone deacetylase 1 (HDAC1), endogenous in U2OS cells (from UniProt Q13547 1-482) (enzyme)”, the binding result in experiment [5] is “binds”; in experiment [6], “binds”; in experiment [2], “binds”; in experiment [7], “no binding (condition: with VNGD silenced (sh-VNGD))”.

Take “pACT-HDAC1 (mammalian two-hybrid fusion) (from UniProt Q13547 1-482) (enzyme)”: the binding result in experiment [8] was “binds”.

B1: HDAC7, endogenous in U2OS cells (enzyme, UniProt Q8WUI4 1-952)
chain: MDLRVGQRPPVEPPPEPTLLALQRPQRLHHHLFLAGLQQQRSVEPMRLSMDTPMPELQVGPQEQELRQLLHKDKSKRSAVASSVVKQKLAEVILKKQQAALERTVHPNSPGIPYRTLEPLETEGATRSMLSSFLPPVPSLPSDPPEHFPLRKTVSEPNLKLRYKPKKSLERRKNPLLRKESAPPSLRRRPAETLGDSSPSSSSTPASGCSSPNDSEHGPNPILGSEALLGQRLRLQETSVAPFALPTVSLLPAITLGLPAPARADSDRRTHPTLGPRGPILGSPHTPLFLPHGLEPEAGGTLPSRLQPILLLDPSGSHAPLLTVPGLGPLPFHFAQSLMTTERLSGSGLHWPLSRTRSEPLPPSATAPPPPGPMQPRLEQLKTHVQVIKRSAKPSEKPRLRQIPSAEDLETDGGGPGQVVDDGLEHRELGHGQPEARGPAPLQQHPQVLLWEQQRLAGRLPRGSTGDTVLLPLAQGGHRPLSRAQSSPAAPASLSAPEPASQARVLSSSETPARTLPFTTGLIYDSVMLKHQCSCGDNSRHPEHAGRIQSIWSRLQERGLRSQCECLRGRKASLEELQSVHSERHVLLYGTNPLSRLKLDNGKLAGLLAQRMFVMLPCGGVGVDTDTIWNELHSSNAARWAAGSVTDLAFKVASRELKNGFAVVRPPGHHADHSTAMGFCFFNSVAIACRQLQQQSKASKILIVDWDVHHGNGTQQTFYQDPSVLYISLHRHDDGNFFPGSGAVDEVGAGSGEGFNVNVAWAGGLDPPMGDPEYLAAFRIVVMPIAREFSPDLVLVSAGFDAAEGHPAPLGGYHVSAKCFGYMTQQLMNLAGGAVVLALEGGHDLTAICDASEACVAALLGNRVDPLSEEGWKQKPNLNAIRSLEAVIRVHSKYWGCMQRLASCPDSWVPRVPGADKEEVEAVTALASLSVGILAEDRPSEQLVEEEEPMNL
In the case of B1, in experiment [2], the binding result is recorded as “no binding”.

B2: HDAC10, endogenous in U2OS cells (enzyme, UniProt Q969S8 1-669)
chain: MGTALVYHEDMTATRLLWDDPECEIERPERLTAALDRLRQRGLEQRCLRLSAREASEEELGLVHSPEYVSLVRETQVLGKEELQALSGQFDAIYFHPSTFHCARLAAGAGLQLVDAVLTGAVQNGLALVRPPGHHGQRAAANGFCVFNNVAIAAAHAKQKHGLHRILVVDWDVHHGQGIQYLFEDDPSVLYFSWHRYEHGRFWPFLRESDADAVGRGQGLGFTVNLPWNQVGMGNADYVAAFLHLLLPLAFEFDPELVLVSAGFDSAIGDPEGQMQATPECFAHLTQLLQVLAGGRVCAVLEGGYHLESLAESVCMTVQTLLGDPAPPLSGPMAPCQSALESIQSARAAQAPHWKSLQQQDVTAVPMSPSSHSPEGRPPPLLPGGPVCKAAASAPSSLLDQPCLCPAPSVRTAVALTTPDITLVLPPDVIQQEASALREETEAWARPHESLAREEALTALGKLLYLLDGMLDGQVNSGIAATPASAAAATLDVAVRRGLSHGAQRLLCVALGQLDRPPDLAHDGRSLWLNIRGKEAAALSMFHVSTPLPVMTGGFLSCILGLVLPLAYGFQPDLVLVALGPGHGLQGPHAALLAAMLRGLAGGRVLALLEENSTPQLAGILARVLNGEAPPSLGPSSVASPEDVQALMYLRGQLEPQWKMLQCHPHLVA
Take B2: the binding result in experiment [2] was “no binding”.

B3: HDAC8, endogenous in U2OS cells (enzyme, UniProt Q9BY41 1-377)
chain: MEEPEEPADSGQSLVPVYIYSPEYVSMCDSLAKIPKRASMVHSLIEAYALHKQMRIVKPKVASMEEMATFHTDAYLQHLQKVSQEGDDDHPDSIEYGLGYDCPATEGIFDYAAAIGGATITAAQCLIDGMCKVAINWSGGWHHAKKDEASGFCYLNDAVLGILRLRRKFERILYVDLDLHHGDGVEDAFSFTSKVMTVSLHKFSPGFFPGTGDVSDVGLGKGRYYSVNVPIQDGIQDEKYYQICESVLKEVYQAFNPKAVVLQLGADTIAGDPMCSFNMTPVGIGKCLKYILQWQLATLILGGGGYNLANTARCWTYLTGVILGKTLSSEIPDHEFFTAYGPDYVLEITPSCRPDRNEPHRIQQILNYIKGNLKHVV
For B3, in experiment [2], the binding entry is “no binding”.
